Laboratory results taken from the supplement of paper PMC3334620.
The full ranking holds about 33,000 sequences; the median of “E-score (-0.5 to 0.5)” is about -0.035, and the highest 2% start at about 0.35. The list shows a part of the results.

Each sequence was assayed against T1, Pdr3 (UniProt P33200) (assay: PBM E-score (8-mer binding enrichment) (E-score (-0.5 to 0.5)); higher = stronger / more preferred TF binding; most listed sequences are background and not binding sites). Settings: protein concentration: 200 nM; construct: GST-full length.
T1 sequence: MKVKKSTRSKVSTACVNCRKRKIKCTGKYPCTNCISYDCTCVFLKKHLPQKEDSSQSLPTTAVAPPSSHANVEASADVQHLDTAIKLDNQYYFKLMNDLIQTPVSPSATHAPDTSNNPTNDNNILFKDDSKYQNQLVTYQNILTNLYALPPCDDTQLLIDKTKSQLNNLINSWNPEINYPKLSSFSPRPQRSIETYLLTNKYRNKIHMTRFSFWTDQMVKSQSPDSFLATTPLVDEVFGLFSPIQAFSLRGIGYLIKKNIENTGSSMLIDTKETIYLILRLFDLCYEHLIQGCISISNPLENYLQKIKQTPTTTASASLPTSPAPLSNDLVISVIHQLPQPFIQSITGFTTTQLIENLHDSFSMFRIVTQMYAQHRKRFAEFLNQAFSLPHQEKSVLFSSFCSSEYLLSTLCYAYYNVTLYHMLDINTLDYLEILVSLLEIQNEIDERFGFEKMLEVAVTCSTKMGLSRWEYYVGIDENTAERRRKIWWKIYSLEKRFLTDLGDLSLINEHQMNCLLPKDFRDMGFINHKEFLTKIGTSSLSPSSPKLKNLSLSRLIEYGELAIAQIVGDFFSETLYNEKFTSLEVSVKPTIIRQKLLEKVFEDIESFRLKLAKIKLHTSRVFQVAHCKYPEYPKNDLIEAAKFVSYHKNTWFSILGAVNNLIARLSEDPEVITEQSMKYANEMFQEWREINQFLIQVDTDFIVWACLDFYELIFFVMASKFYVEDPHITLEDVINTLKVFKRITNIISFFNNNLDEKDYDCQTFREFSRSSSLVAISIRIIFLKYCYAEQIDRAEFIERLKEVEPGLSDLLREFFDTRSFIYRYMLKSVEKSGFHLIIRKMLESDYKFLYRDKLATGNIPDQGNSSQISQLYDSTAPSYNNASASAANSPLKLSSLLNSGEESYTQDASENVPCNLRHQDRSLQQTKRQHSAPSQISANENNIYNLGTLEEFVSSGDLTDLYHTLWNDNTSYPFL
Summary of the method: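 Using PURExpress in vitro transcription/translation, GST-tagged yeast transcription factors were made in full-length or DNA-binding-domain form. These were applied at about 100-200 nM to double-stranded universal all-10-mer Agilent arrays, and bound protein was detected with fluorescent anti-GST. Scans were normalised with masliner before the Universal PBM Analysis Suite assigned E-scores to ungapped eight-base words pooled with their reverse complements.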

Sequence | PBM E-score
TTCGCCAA | -0.128
ACAGTGAC | 0.0756
CATCGGCG | 0.105
CGTCAATA | -0.13
ATGCGGAC | 0.134
GCTTCTCC | -0.0434
ATTGCCAG | 0.0932
AATACCAC | -0.0169
ACTGTCCT | 0.0354
AATTTCGG | 0.161
AAATTTTG | -0.243
AGCACTGC | -0.274
AAGTCAGC | 0.0449
ATTTGGCG | -0.14
AGACTCGA | -0.271
GGTACCAC | -0.0409
GCATAAGA | -0.00861
CTCTGGAC | -0.0149
CTCGGCTA | 0.186
ATAGTACC | -0.00506
TAGCCCAA | -0.0827
CAACAAAC | 0.0447

Sequence | PBM E-score
GTGCACAC | -0.113
CTAATCCA | -0.065
GAACTATC | 0.0619
CAGAACCG | 0.116
CCGCCACC | 0.0657
ACTCTGCG | -0.0457
ATAGCGCG | 0.0942
ACACTCTG | -0.149
AAACTGGA | -0.124
CATTACAA | 0.00095
TCAACCGA | 0.148
CAGTATGG | -0.0259
CGATCGTC | 0.145
CCACAGTC | -0.3
CAGCGTAA | -0.0367
AAACATAT | 0.106
CCCGTCCC | 0.195
CGAGCATA | -0.0939
GTAACTGA | -0.311
CAAGGCTC | -0.356
AAGTGCCA | -0.0807
GTTGTGGA | -0.0502

Sequence | PBM E-score
CGAAAAAC | 0.00325
GGATGCAA | 0.0676
AAACGTCG | 0.0829
AATTATGT | -0.076
GAACTGGC | 0.101
CCGAATCG | 0.259
AGACCACA | -0.095
AGAAGAGC | -0.112
ACTACGCG | 0.0457
ATAGGGGC | -0.0113
ACCGTTCC | 0.364
CCGTGAGC | 0.0934
AGAGACGA | -0.103
GCAGTGGC | 0.0708
CACCAGTA | -0.12
CCCACCAA | -0.0735
AAGGCCCT | -0.0921
CTCAAAGC | -0.0214
AGTCGCAA | 0.0426
ATTAATAG | 0.0226
GAGAGCTC | -0.0913
AGATCCAG | 0.112

Sequence | PBM E-score
ATCAGTTC | 0.141
AATCGCGT | 0.0675
CTCCACTA | -0.0961
AGTTGGAA | -0.145
AATCGGTA | -0.0123
TCACCTAA | 0.0222
GAATGTGA | -0.141
CATTCGCA | -0.227
TGGTCCAA | -0.0168
CTAGGGAG | -0.205
AGGTAGGA | -0.166
GACCTAAA | 0.0666
GAAAGCAA | 0.17
ACACGATA | 0.0566
AGCGTACG | -0.129
AGGGTCAT | -0.26
AACGTCGT | 0.0532
GTGTAGTA | 0.0739
CTGGCTGA | -0.0512
ACCTTAGC | -0.138
